PubChem BioAssay (Tox21)
Values joined by “and” are separate entries in the source; they are usually repeats but may differ in a detail not shown here. Identical values can stand only once. The shares of active, inactive and inconclusive entries below differ from those in the screen. For part of these data: Where the call is inconclusive, the potency comes from a doubtful curve fit. More than one record can exist for a structure, and the calls need not agree. Active and inactive are the calls of the source. Unless noted, the call rests on the fitted dose curve; in most records, active means well fitted curve in the direction sought with a large enough effect in the repeat runs; inconclusive means weak or mixed curves; inactive means no such curve, though single readings can be large; an effect the other way counts as inactive or inconclusive.

Legend:
[1] = qHTS assay for identifying genotoxic compounds that show differential cytotoxicity against isogenic chicken DT40 cell lines with known DNA damage response pathways - wild type cell line (AID 743012); conditions: DT40 wild type chicken cells viability, CellTiter-Glo, 40 h; activity change, negative = cytotoxicity: at 68.4 µM (top of the series) unless noted; further: nearly all actives have a fitted effect of over 60% in size; further: potency means the concentration at half of the fitted maximal effect; on activity change, negative = cytotoxicity: on the % scale 0 is the no-effect control and ±100 the full control effect
Summary of the method: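 Cytotoxicity in repair-proficient parental chicken DT40 cells serves as the comparator for Rad54/Ku70- and Rev3-deficient lines. Cells were exposed to compounds for 40 h at 37 C/5% CO2, and ATP-based luminescence (CellTiter-Glo) measured viability.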

[2] = qHTS assay for identifying genotoxic compounds that show differential cytotoxicity against isogenic chicken DT40 cell lines with known DNA damage response pathways - Rev3 mutant cell line (AID 743014); conditions: chicken DT40 Rev3-/- viability, CellTiter-Glo, 40 h; activity, negative = cytotoxicity: at 68.4 µM (top of the series) unless noted; further: nearly all actives have a fitted effect of over 55% in size; further: potency means the concentration at half of the fitted maximal effect; on activity, negative = cytotoxicity: on the % scale 0 is the no-effect control and ±100 the full control effect
[3] = qHTS assay to identify small molecule antagonists of the thyroid receptor (TR) signaling pathway (AID 743065); further: nearly all actives have a fitted effect of over 55% in size; further: potency means the concentration at half of the fitted maximal effect; on activity, negative = inhibition: on the % scale 0 is the no-effect control and ±100 the full control effect
Summary of the method: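 Antagonism measured as loss of luciferase signal in GH3 cells stably carrying a TRE-luciferase reporter, co-treated with compound and T3 (1 nM final) for 23.5 h at 37 C. Viability was read in the same well by CellTiter-Fluor.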

[4] = target: Estrogen receptor (Homo sapiens) (UniProt P03372); test: qHTS assay to identify small molecule agonists of the estrogen receptor alpha (ER-alpha) signaling pathway using the BG1 cell line (AID 743079); conditions: BG1Luc4E2 cells, ERE-luciferase agonist, 22 h; activation: at 70.3 µM (top of the series) unless noted; further: potency means the concentration at half of the fitted maximal effect; nearly all actives have a fitted effect of over 20% in size
Sequence of UniProt P03372 (P03372 whole entry, looked up): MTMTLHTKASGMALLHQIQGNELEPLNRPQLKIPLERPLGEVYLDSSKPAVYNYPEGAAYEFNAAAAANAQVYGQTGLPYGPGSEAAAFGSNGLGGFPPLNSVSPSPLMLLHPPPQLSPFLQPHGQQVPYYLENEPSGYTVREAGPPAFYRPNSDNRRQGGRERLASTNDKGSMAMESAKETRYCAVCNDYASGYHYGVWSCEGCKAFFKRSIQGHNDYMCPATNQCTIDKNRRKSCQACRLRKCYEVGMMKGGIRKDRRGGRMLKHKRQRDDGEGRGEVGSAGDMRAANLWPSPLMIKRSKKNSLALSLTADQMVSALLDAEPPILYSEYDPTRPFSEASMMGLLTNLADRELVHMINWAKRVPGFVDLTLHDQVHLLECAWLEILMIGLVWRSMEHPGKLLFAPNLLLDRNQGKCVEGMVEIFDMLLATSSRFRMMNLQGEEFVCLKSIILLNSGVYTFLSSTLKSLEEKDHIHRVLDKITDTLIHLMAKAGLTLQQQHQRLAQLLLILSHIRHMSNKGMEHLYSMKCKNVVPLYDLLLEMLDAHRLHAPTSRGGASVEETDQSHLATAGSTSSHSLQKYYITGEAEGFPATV

[5] = qHTS assay to identify small molecule antagonists of the estrogen receptor alpha (ER-alpha) signaling pathway - cell viability counter screen (AID 743074; calls by dose curve;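 further: HEK293 cells carrying ER-alpha-UAS-bla reporter stimulated with 17beta-estradiol; potency means the concentration at half of the fitted maximal effect; nearly all actives have a fitted effect of over 45% in size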)
[6] = target: Estrogen receptor (Homo sapiens) (UniProt P03372); test: qHTS assay to identify small molecule antagonists of the estrogen receptor alpha (ER-alpha) signaling pathway (AID 743069; active means well fitted curve in the direction sought with a large enough effect in the signal ratio in the repeat runs, not every such curve was filed as active; inconclusive means weak or mixed curves, or effect the other way; inactive means no such curve, though single readings can be large or run the other way; the % refers to the signal ratio; further: potency means the concentration at half of the fitted maximal effect); conditions: HEK293 ER-alpha-UAS-bla, beta-lactamase ratio, antagonist mode; activity, negative = inhibition: at 69.4 µM (top of the series) unless noted
Summary of the method: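 Antagonist mode: compounds in DMSO were co-added with 17beta-estradiol to ER-alpha-bla HEK293 cells (2% charcoal-stripped serum) and left 18 h at 37C. Reporter inhibition was measured as FRET fluorescence after 2 h LiveBLAzer substrate at room temperature.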

[7] = qHTS assay to identify small molecule antagonists of the thyroid receptor (TR) signaling pathway - cell viability counter screen (AID 743064); conditions: GH3.TRE-Luc viability, CellTiter-Fluor, 24 h; activity change, negative = cytotoxic: at 70.3 µM (top of the series) unless noted; further: on the % scale 0 is the no-effect control and ±100 the full control effect; nearly all actives have a fitted effect of over 50% in size
Summary of the method: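 GH3.TRE-Luc cells, 4 h pre-plating; cpd + T3 1 nM final; 37 °C 23.5 h; CellTiter-Fluor 30 min; fluorescence read.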
Tags describe the fitted curve by direction and shape or compound fluorescence and quenching.

Question: What does the source list for CCCCCCCCCCCCCO?
Answer: Potency [1]: inconclusive: 63.3 µM [cytotoxic, single point]; activity, negative = cytotoxicity [2]: inconclusive: -49.5% [cytotoxic] [at 95 µM]; Potency [3]: inactive; Potency [4]: inconclusive: 63.3 µM [activator, partial curve, poor fit]

Question: Which activity change, negative = cytotoxicity [1] does the source give for CC(C)=CCC[C@](C)(O)[C@@H]1CC=C(C)CC1 here?
Answer: inconclusive: 39.2%

Question: What about the Potency [2] of the same compound?
Answer: inactive

Question: What about the Potency [5] of the same compound?
Answer: inconclusive: 21.9 µM [rising, partial curve, poor fit]

Question: With CCC(CC)(CC(=O)Nc1cccc(/C=C/c2nc(C3CCC3)cs2)c1)C(=O)O as the compound, how does the Potency [1] read?
Answer: inconclusive: 23.7 µM [cytotoxic, partial curve, poor fit]

Question: What about the Potency [2] of the same compound?
Answer: inconclusive: 26.6 µM [cytotoxic, partial curve]

Question: And the Potency [6]?
Answer: inconclusive: 23.9 µM [rising, partial curve, poor fit]

Question: Which Potency [1] does the source give for CCOC(=O)C(C)Oc1ccc(Oc2cnc3cc(Cl)ccc3n2)cc1 (stereo not drawn) here?
Answer: inconclusive: 12.5 µM [rising, single point]

Question: And the Potency [2]?
Answer: active: 40.5 µM

Question: What about the Potency [7] of the same compound?
Answer: inactive

Question: And the Potency [3]?
Answer: inconclusive: 62.6 µM [inhibitor, partial curve, poor fit]

Question: What about the Potency [5] of the same compound?
Answer: inconclusive: 50.2 µM [rising, partial curve]

Question: Which results are given for O=C1C(c2[nH]c3ccc(S(=O)(=O)O)cc3c2O)=Nc2ccc(S(=O)(=O)O)cc21?
Answer: Potency [1]: inconclusive: 54.5 µM [cytotoxic, partial curve]; Potency [2]: inconclusive: 34.4 µM [cytotoxic, partial curve, poor fit]; Potency [5]: inconclusive: 9.52 µM [cytotoxic, partial curve, poor fit] and inconclusive: 54.9 µM [cytotoxic, single point]
